Among all 310,000 compounds or so, about 14,000 (4.5%) showed an effect of 50% or more. Effects have a minus sign here. Some of the results follow.
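Note: peak tail current of the secondary pulse compared with the same well before compound.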

human ether-à-go-go-related gene (hERG) potassium channel, sequence (Q12809 whole entry, looked up): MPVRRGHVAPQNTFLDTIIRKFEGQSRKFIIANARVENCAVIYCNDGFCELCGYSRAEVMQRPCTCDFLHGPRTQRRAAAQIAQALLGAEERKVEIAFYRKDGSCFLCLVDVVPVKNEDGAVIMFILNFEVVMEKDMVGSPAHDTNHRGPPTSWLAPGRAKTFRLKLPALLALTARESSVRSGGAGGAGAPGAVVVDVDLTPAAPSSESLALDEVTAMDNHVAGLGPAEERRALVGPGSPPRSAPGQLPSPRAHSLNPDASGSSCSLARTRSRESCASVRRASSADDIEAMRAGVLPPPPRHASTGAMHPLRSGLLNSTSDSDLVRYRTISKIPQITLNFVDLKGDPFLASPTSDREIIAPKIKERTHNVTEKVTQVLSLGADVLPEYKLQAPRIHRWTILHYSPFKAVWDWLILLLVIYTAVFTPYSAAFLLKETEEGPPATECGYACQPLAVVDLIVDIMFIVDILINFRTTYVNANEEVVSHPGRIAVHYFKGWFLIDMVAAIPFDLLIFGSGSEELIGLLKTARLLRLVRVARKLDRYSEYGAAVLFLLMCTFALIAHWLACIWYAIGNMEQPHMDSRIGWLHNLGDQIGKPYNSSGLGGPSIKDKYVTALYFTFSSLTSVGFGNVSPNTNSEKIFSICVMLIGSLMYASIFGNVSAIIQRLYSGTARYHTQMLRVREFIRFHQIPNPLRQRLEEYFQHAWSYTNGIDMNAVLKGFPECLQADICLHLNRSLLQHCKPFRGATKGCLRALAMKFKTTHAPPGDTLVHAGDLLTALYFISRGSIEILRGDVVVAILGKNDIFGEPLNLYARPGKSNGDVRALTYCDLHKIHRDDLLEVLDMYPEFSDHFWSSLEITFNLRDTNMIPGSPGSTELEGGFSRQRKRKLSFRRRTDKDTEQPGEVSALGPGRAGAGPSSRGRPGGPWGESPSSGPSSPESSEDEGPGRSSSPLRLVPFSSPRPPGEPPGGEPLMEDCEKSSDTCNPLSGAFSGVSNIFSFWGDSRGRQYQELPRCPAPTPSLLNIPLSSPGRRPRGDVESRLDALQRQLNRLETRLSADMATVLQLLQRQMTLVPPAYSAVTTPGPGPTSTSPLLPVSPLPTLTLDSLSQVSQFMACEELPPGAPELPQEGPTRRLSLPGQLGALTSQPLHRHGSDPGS

This assay addresses human ether-à-go-go-related gene (hERG) potassium channel (human, UniProt Q12809). The assay is described as follows: primary screen, population patch clamp on CHO cells stably expressing hERG.
Consider `Cc1ccc2nsnc2c1S(=O)(=O)Nc1cccc2nsnc12`, for which the “hERG current change (%, negative = inhibition) at 10uM” value is reported as -0.692%. Next, `CNc1cc(N2CCCC2)ccc1[N+](=O)[O-]`: -2.72%; `Cl.OC(CNCC1COc2ccccc2O1)COc1ccc(Cl)cc1` (stereo not shown): -56.2%; `Cn1c(CC(=O)NC(C)(C)CO)c(Sc2ccccc2)c2ccccc21`: -37.8%. `COCCCNCC(O)COc1cccc2[nH]c(C)cc12` (stereo not shown): the “hERG current change (%, negative = inhibition) at 10uM” value came to 10%. For `Cc1cc([N+](=O)[O-])cc2c1NC(=O)C2(O)N1CCOCC1` (stereo not shown), the “hERG current change (%, negative = inhibition) at 10uM” value is listed as 6.67%.

Consider `CCOC(=O)c1[nH]c2ccc(OC)cc2c1NC(=O)CCN1CCc2ccccc2C1`, for which the “hERG current change (%, negative = inhibition) at 10uM” value is on record as -59.5%. For `COc1ccc(CCNC(=O)c2ccco2)cc1OC`, the “hERG current change (%, negative = inhibition) at 10uM” value is 2.1%. As to `CC1(C)Cc2c(c(N3CCOCC3)nc3sc4c(=O)[nH]cnc4c23)CS1`, the “hERG current change (%, negative = inhibition) at 10uM” value is 4.52%.

Consider `Cc1ccc(C(=O)N/N=C/c2ccc(-c3ccc(Br)cc3[N+](=O)[O-])o2)o1`, for which the “hERG current change (%, negative = inhibition) at 10uM” value is recorded as -9.13%. On to `CCOC(=O)CNS(=O)(=O)c1ccc(C)cc1`, for which the “hERG current change (%, negative = inhibition) at 10uM” value is 3.8%. `CC(C)(C)C(=O)Nc1ccc(N2CCCC2)cc1`: the “hERG current change (%, negative = inhibition) at 10uM” value is -8.68%. For the compound `COc1ccc(Cl)cc1NC(=O)c1cc(-c2ccc(C)cc2O)n[nH]1`, the “hERG current change (%, negative = inhibition) at 10uM” value stood at 15.9%.

Take `CCN(CC)S(=O)(=O)c1ccc(N(C)Cc2cccnc2)nc1`: the “hERG current change (%, negative = inhibition) at 10uM” value is -15.2%.

In the case of `COc1ccc(OC)c(NC(=O)COC(=O)c2ccc(-n3cnnn3)cc2)c1`, the “hERG current change (%, negative = inhibition) at 10uM” value is -12.5%. Next, `CCN(CC(=O)NCc1ccc(Cl)cc1)C(=O)CSc1cc(C)ccc1C`: -47.5%. Consider `COCCNC(=S)N(CCc1c(C)[nH]c2ccc(F)cc12)Cc1cccnc1`, for which the “hERG current change (%, negative = inhibition) at 10uM” value is -21.5%. For `O=C(COc1ccccc1)Nc1ccccc1N1CCN(c2ccccc2)CC1`, the “hERG current change (%, negative = inhibition) at 10uM” value is 1.02%. In the case of `Nc1nc(SCC(=O)NC2CCCCC2)n[nH]1`, the “hERG current change (%, negative = inhibition) at 10uM” value came out at 11.1%. In the case of `Cc1cc(C(=O)OCC(=O)Nc2cccc(S(=O)(=O)N(C)C)c2)c2ccccc2n1`, the “hERG current change (%, negative = inhibition) at 10uM” value is -9.8%.

On to `CCOC(=O)CSc1nnc(NC(=O)c2cccc([N+](=O)[O-])c2)s1`, for which the “hERG current change (%, negative = inhibition) at 10uM” value is recorded as -1.68%. As to `CCOc1ccc(Br)c(C2(O)CC(C)N(C)CC2C)c1` (stereo not shown), the “hERG current change (%, negative = inhibition) at 10uM” value is listed as -10.5%. As for `COc1ccc(N2C(=O)CC(=O)NC2=O)cc1`, the “hERG current change (%, negative = inhibition) at 10uM” value is -11.3%. For the compound `CN1CCN(CC(=O)Nc2c(C#N)cnn2-c2ccccc2)CC1`, the “hERG current change (%, negative = inhibition) at 10uM” value was 12.1%. As for `COc1ccc(N2CCN(c3ccc(N4C(=O)COCC4=O)cc3[N+](=O)[O-])CC2)cc1`, the “hERG current change (%, negative = inhibition) at 10uM” value is -11.1%.

Source of the values: publication PMC4336329 (PLoS ONE, 2015).
